Experimental data: patent publication US20190367516A1 (Bayer Pharma Aktiengesellschaft, priority 2015, published 2019)

What follows are molecules tested against T1, human M2 receptor (Homo sapiens, UniProt P08172). Conditions: M2-GIRK1/4 activation test; boosting of the acetylcholine effect at an EC20 acetylcholine concentration.
T1 sequence (P08172 1-466): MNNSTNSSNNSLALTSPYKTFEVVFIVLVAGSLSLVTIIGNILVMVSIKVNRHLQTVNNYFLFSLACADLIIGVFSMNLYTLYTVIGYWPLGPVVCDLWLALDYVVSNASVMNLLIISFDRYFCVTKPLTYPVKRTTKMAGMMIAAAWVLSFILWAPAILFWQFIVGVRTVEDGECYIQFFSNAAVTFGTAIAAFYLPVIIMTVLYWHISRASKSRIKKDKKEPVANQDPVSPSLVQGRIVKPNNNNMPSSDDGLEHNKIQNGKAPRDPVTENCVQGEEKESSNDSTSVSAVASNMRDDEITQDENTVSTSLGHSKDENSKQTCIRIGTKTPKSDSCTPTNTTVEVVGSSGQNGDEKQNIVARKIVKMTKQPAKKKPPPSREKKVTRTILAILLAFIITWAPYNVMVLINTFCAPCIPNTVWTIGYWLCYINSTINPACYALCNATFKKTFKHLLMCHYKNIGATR

Efficiency [%] | Structure (SMILES)
94.0 | O=C(NC(c1c(F)cccc1F)C(F)(F)F)c1cn(-c2ccc(F)cc2F)c2nc(N3CCC(O)CC3=O)ccc2c1=O (single isomer, unassigned) [Example 254, 1-(2,4-Difluorophenyl)-N-[1-(2,6-difluorophenyl)-2,2,2-trifluoroethyl]-7-[4-hydroxy-2-oxopiperidin-1-yl]-4-oxo-1,4-dihydro-1,8-naphthyridine-3-carboxamide]
96.7 | O=C(NC(c1c(F)cccc1F)C(F)(F)F)c1cn(-c2ccc(F)cc2F)c2nc(N3CCC(O)CC3=O)ccc2c1=O (single isomer, unassigned) [Example 255, 1-(2,4-Difluorophenyl)-N-[1-(2,6-difluorophenyl)-2,2,2-trifluoroethyl]-7-[4-hydroxy-2-oxopiperidin-1-yl]-4-oxo-1,4-dihydro-1,8-naphthyridine-3-carboxamide]
95.0 | O=C(NC(c1c(F)cccc1F)C(F)(F)F)c1cn(-c2ccc(F)cc2F)c2nc(N3CCC(O)CC3=O)ccc2c1=O (single isomer, unassigned) [Example 256, 1-(2,4-Difluorophenyl)-N-[1-(2,6-difluorophenyl)-2,2,2-trifluoroethyl]-7-[4-hydroxy-2-oxopiperidin-1-yl]-4-oxo-1,4-dihydro-1,8-naphthyridine-3-carboxamide]
76.3 | CC[C@@H](NC(=O)c1cn(-c2ccc(F)cc2F)c2nc(N3CCOC(C(F)F)C3)ccc2c1=O)C(F)(F)F (single isomer, unassigned) [Example 264]
100.0 | CC[C@@H](NC(=O)c1cn(-c2ccc(F)cc2F)c2nc(N3CCOC(C(F)F)C3)ccc2c1=O)C(F)(F)F (single isomer, unassigned) [Example 265]
94.0 | CC[C@@H](NC(=O)c1cn(-c2ccccc2C(F)(F)F)c2nc(N3C[C@@H](O)CC3=O)ccc2c1=O)C(F)(F)F (single isomer, unassigned) [Example 270]
100.0 | O=C(NC(c1ccccc1Cl)C(F)(F)F)c1cn(-c2ccccc2F)c2nc(N3CCC(O)C3=O)ccc2c1=O (single isomer, unassigned) [Example 290]
99.5 | O=C(NC(c1ccccc1Cl)C(F)(F)F)c1cn(-c2ccccc2F)c2nc(N3CCC(O)C3=O)ccc2c1=O (single isomer, unassigned) [Example 291]
92.5 | CC[C@@H](NC(=O)c1cn(-c2c(F)cccc2F)c2nc(N3CCC(O)C3=O)ccc2c1=O)C(F)(F)F (single isomer, unassigned) [Example 294]
95.0 | CC[C@@H](NC(=O)c1cn(-c2ccc(F)cc2F)c2nc(N3CC(C)CC3=O)ccc2c1=O)C(F)(F)F (single isomer, unassigned) [Example 303]
98.5 | CC[C@@H](NC(=O)c1cn(-c2c(F)cccc2F)c2nc(N3CC4CC4(O)C3)ccc2c1=O)C(F)(F)F (single isomer, unassigned) [Example 306]
80.0 | C[C@H](NC(=O)c1cn(-c2c(F)cccc2F)c2nc(N3CC4CC4(O)C3)ccc2c1=O)C(F)(F)F (single isomer, unassigned) [Example 313]
96.3 | CC[C@@H](NC(=O)c1cn(-c2ccc(F)cc2F)c2nc(N3CC4CC4(O)C3)ccc2c1=O)C(F)(F)F (single isomer, unassigned) [Example 315]
86.0 | C[C@H](NC(=O)c1cn(-c2c(F)cc(F)cc2F)c2nc(N3CC4CC4(O)C3)ccc2c1=O)C(F)(F)F (single isomer, unassigned) [Example 318]
100.0 | CC(C)(CC(F)(F)F)NC(=O)c1cn(-c2c(F)cc(F)cc2Cl)c2nc(N3C[C@@H](O)[C@H](O)C3)ccc2c1=O (single isomer, unassigned) [Example 393]

Same assay, conditions: read-out: Efficiency, M2-GIRK1/4 activation test; boosting of the acetylcholine effect at an EC20 acetylcholine concentration

Emax [%] | Structure (SMILES)
100 | O=C(NC(c1c(F)cccc1F)C(F)(F)F)c1cn(-c2ccc(F)cc2F)c2nc(N3CCC(O)CC3=O)ccc2c1=O (single isomer, unassigned) [Example 253, 1-(2,4-Difluorophenyl)-N-[1-(2,6-difluorophenyl)-2,2,2-trifluoroethyl]-7-[4-hydroxy-2-oxopiperidin-1-yl]-4-oxo-1,4-dihydro-1,8-naphthyridine-3-carboxamide]
98 | CC[C@@H](NC(=O)c1cn(-c2ccccc2C(F)(F)F)c2nc(N3C[C@@H](O)CC3=O)ccc2c1=O)C(F)(F)F (single isomer, unassigned) [Example 269]
98.5 | CC[C@@H](NC(=O)c1cn(-c2c(F)cccc2F)c2nc(N3CCC(C)(O)C3)ccc2c1=O)C(F)(F)F (single isomer, unassigned) [Example 277]
100 | CC[C@@H](NC(=O)c1cn(-c2c(F)cc(F)cc2F)c2nc(N3CCC(O)C3=O)ccc2c1=O)C(F)(F)F (single isomer, unassigned) [Example 281]
97.8 | O=C(N[C@@H](C1CC1)C(F)(F)F)c1cn(-c2ccc(F)cc2F)c2nc(N3C[C@@H](O)CC3=O)ccc2c1=O (single isomer, unassigned) [Example 284]
84 | O=C(NC(c1ccccc1Cl)C(F)(F)F)c1cn(-c2ccccc2F)c2nc(N3CCC(O)C3=O)ccc2c1=O (single isomer, unassigned) [Example 288]
88.5 | CC[C@@H](NC(=O)c1cn(-c2c(F)cccc2F)c2nc(N3CCC(O)C3=O)ccc2c1=O)C(F)(F)F (single isomer, unassigned) [Example 293]
97.4 | O=C(N[C@H](C1CC1)C(F)(F)F)c1cn(-c2c(F)cccc2F)c2nc(N3C[C@@H](O)CC3=O)ccc2c1=O (single isomer, unassigned) [Example 296]
97.3 | O=C(N[C@@H](C1CC1)C(F)(F)F)c1cn(-c2c(F)cccc2F)c2nc(N3C[C@@H](O)CC3=O)ccc2c1=O (single isomer, unassigned) [Example 297]
96 | CC[C@@H](NC(=O)c1cn(-c2ccc(F)cc2F)c2nc(N3CC(C)CC3=O)ccc2c1=O)C(F)(F)F (single isomer, unassigned) [Example 302]
98.5 | CC[C@@H](NC(=O)c1cn(-c2c(F)cccc2F)c2nc(N3CC4CC4(O)C3)ccc2c1=O)C(F)(F)F (single isomer, unassigned) [Example 305]
97 | C[C@H](NC(=O)c1cn(-c2c(F)cccc2F)c2nc(N3CC4CC4(O)C3)ccc2c1=O)C(F)(F)F (single isomer, unassigned) [Example 312]
100 | CC[C@@H](NC(=O)c1cn(-c2ccc(F)cc2F)c2nc(N3CC4CC4(O)C3)ccc2c1=O)C(F)(F)F (single isomer, unassigned) [Example 314]
88 | C[C@H](NC(=O)c1cn(-c2c(F)cc(F)cc2F)c2nc(N3CC4CC4(O)C3)ccc2c1=O)C(F)(F)F (single isomer, unassigned) [Example 317]
100 | CC(C)(CC(F)(F)F)NC(=O)c1cn(-c2c(F)cc(F)cc2Cl)c2nc(N3C[C@@H](O)[C@H](O)C3)ccc2c1=O (single isomer, unassigned) [Example 392]
100 | CCC(NC(=O)c1cn(-c2ccc(F)cc2F)c2nc(N3CCN(C(=O)OC)CC3)ccc2c1=O)C(F)(F)F (single isomer, unassigned; enantiomer a) [Example 24, ent-Methyl 4-{8-(2,4-difluorophenyl)-5-oxo-6-[(1,1,1-trifluorobutan-2-yl)carbamoyl]-5,8-dihydro-1,8-naphthyridin-2-yl}piperazine-1-carboxylate (Enantiomer A)]
